From the supplement of paper PMC3334620 come the findings set out here.

Whole data set: some 33,000 sequences, median “E-score (-0.5 to 0.5)” near -0.035, cut for the highest 2% near 0.35. This is one part of the list.

The assay deals with T1, Pdr3 (UniProt P33200).
T1 sequence: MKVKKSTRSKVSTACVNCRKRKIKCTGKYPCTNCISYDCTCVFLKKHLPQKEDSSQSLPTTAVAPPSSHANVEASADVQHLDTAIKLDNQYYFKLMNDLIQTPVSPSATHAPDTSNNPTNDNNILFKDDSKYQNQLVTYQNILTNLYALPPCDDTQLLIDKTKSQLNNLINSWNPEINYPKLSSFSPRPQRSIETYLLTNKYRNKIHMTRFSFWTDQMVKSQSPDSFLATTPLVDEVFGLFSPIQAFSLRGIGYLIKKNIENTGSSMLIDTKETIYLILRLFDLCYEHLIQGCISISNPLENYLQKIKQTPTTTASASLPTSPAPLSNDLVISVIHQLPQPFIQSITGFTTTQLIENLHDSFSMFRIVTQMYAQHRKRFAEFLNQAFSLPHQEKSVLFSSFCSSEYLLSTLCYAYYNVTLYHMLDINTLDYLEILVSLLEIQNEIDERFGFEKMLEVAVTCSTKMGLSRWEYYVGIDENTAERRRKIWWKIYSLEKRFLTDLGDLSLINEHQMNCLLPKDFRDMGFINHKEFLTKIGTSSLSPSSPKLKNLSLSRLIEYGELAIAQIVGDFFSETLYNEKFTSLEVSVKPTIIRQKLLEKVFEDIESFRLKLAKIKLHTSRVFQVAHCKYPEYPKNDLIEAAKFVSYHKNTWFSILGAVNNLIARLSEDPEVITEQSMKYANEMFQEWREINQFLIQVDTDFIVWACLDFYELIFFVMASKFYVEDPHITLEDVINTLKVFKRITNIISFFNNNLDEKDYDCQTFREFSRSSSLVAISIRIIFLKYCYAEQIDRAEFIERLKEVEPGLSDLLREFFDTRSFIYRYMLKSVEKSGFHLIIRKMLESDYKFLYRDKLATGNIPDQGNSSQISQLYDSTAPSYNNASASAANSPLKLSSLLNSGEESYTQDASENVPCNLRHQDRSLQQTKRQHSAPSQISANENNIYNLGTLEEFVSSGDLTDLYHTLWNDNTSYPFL
Briefly: PBM E-score (8-mer binding enrichment) (E-score (-0.5 to 0.5)); higher = stronger / more preferred TF binding; most listed sequences are background and not binding sites. Conditions: protein concentration: 200 nM; construct: GST-full length. The method, then: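 Universal 'all 10-mer' protein binding microarrays (Agilent AMADID 015681) probed with GST-tagged S. cerevisiae TFs (full-length or DBD) made by in vitro transcription/translation (PURExpress), about 100-200 nM. Bound TF was detected with fluorescent anti-GST. Each ungapped 8-mer (which stands for itself and its reverse complement) is scored by the PBM enrichment score (E-score), a modified Wilcoxon-Mann-Whitney statistic from -0.5 to +0.5, computed with the Universal PBM Analysis Suite. Scale: above 0.35 generally sequence-specific binding.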
For the sequence ACCCGACG, the “PBM E-score” value is 0.264.
Consider CATAGGAG, for which the “PBM E-score” value is -0.201.
Turning to ACTAACCA, the “PBM E-score” value was -0.0352.
In the case of GCGCCTAA it was 0.069.
Take AGAGATTA: the “PBM E-score” value is -0.0924.
Regarding AGGGGGAG, the “PBM E-score” value is -0.225.
The result for AGCCGTTG reads 0.00388; that for ACTGAAGA, 0.0502; that for ATCTGAAT, -0.0183.
The result for CCCGGCGC reads 0.26; that for CCGTTGCC, 0.215.
In the case of CACCGAAA, the “PBM E-score” value is 0.116.
The result for CTCACAGC reads -0.12; that for ACCAATTG, -0.136; that for ATCTGCGG, 0.19.
For the sequence AAATCCTA, the “PBM E-score” value is -0.0767.
Consider AGAACCGG, for which the “PBM E-score” value is 0.316.
As to ACGCCTCC, the “PBM E-score” value was 0.0133.
The result for ATCCCCAG reads -0.152; that for CTTTCCAA, -0.0271; that for AAGCACAT, 0.0452.
For AACTCGGA, the “PBM E-score” value is 0.296.
In the case of AGACGTCA it was -0.117.
The result for AAGTTTGA reads 0.0868; that for CACGAGCC, -0.155; that for ACGTCCGA, 0.173.
In the case of AGTCTTAC, the “PBM E-score” value was -0.212.
With AGCTTGCA, the “PBM E-score” value is -0.0946.
In the case of AAGATGTC it was 0.0418; in that of AATCGTGT, 0.0849.
Turning to CGGCAGCC, the “PBM E-score” value turned out to be 0.358.
Turning to AATCTTAC, the “PBM E-score” value stood at 0.106.
In the case of AGTCCATA, the “PBM E-score” value was -0.189.
The result for GATCCGAC reads 0.193; that for ACTCGGCT, 0.0466.
The result for CATGGTGG reads -0.00931; that for CGTATTCC, 0.258; that for GCAGACCC, -0.0715.
In the case of AATCCCGG, the “PBM E-score” value was 0.407.
In the case of GGCAGCAA it was 0.0329; in that of ACACCCTC, -0.0138; in that of ATGCGACA, -0.0464.
Consider GGCCGGCC, for which the “PBM E-score” value was 0.326.
The result for GCGAACGA reads -0.0923; that for CTTCTGCA, -0.0542.
Regarding CTCCAGGC, the “PBM E-score” value is -0.271.
In the case of CTTGCGGC it was 0.172; in that of AACGCACG, 0.115.
Take GAATCTGA: the “PBM E-score” value stood at 0.0387.
For the sequence TCACACAA, the “PBM E-score” value is -0.0623.
ACAATTTA: the “PBM E-score” value is -0.0999.
Consider ACTGGTTG, for which the “PBM E-score” value was 0.0224.
In the case of AGTCAGAC it was -0.108; in that of GAAAATGC, 0.0641.
The result for CAGATACC reads -0.112; that for AGCCGATC, 0.14.
In the case of CCTATCAG it was -0.216.
As to ATCAACGG, the “PBM E-score” value came out at 0.247.
The result for GCAATGCA reads -0.133; that for AGAGCCTG, -0.347.
As for ACTTTGGG, the “PBM E-score” value was -0.115.
Take AAGGTACG: the “PBM E-score” value was -0.0286.
On to CAGACTGC, for which the “PBM E-score” value was -0.25.
For the sequence GTGAATGA, the “PBM E-score” value was -0.0292.
For the sequence TCTAAGAA, the “PBM E-score” value was 0.0221.
ACAATTAC: the “PBM E-score” value is -0.127.
For AGACCGCG, the “PBM E-score” value was 0.161.
In the case of ACTCGTAG, the “PBM E-score” value is -0.162.
Consider GCCAGCGC, for which the “PBM E-score” value is -0.0589.
Consider AACCCCTA, for which the “PBM E-score” value is -0.108.
Regarding AGAGATAG, the “PBM E-score” value is -0.0678.
Turning to GCCGGGCA, the “PBM E-score” value is 0.282.
In the case of ATACTTGA it was -0.331; in that of ACCGCTAT, 0.0128; in that of TAAGGAGA, -0.256.
The result for ATCCACCG reads 0.13; that for CCCTTGAA, -0.0712; that for ATTTGTGC, -0.151.
In the case of CCACCTGG it was -0.177; in that of ATGTTTCG, 0.0256; in that of CGTGGTAA, -0.0844.
Consider CTCTAACA, for which the “PBM E-score” value was -0.246.
For the sequence AAGTGGCG, the “PBM E-score” value is 0.0522.
As for CATTCTGG, the “PBM E-score” value was -0.137.
The result for CTGAAGGA reads -0.178; that for AGTAGTCC, 0.122.
